Assay results from the supplement of paper PMC3334620.
In all, about 33,000 sequences were measured (“E-score (-0.5 to 0.5)”: median about -0.013, highest 2% from about 0.3 on). This is one part of the list.

target: T1, Msn1 (UniProt P22148); assay: PBM E-score (8-mer binding enrichment) (E-score (-0.5 to 0.5)); higher = stronger / more preferred TF binding; most listed sequences are background and not binding sites; conditions: protein concentration: 200 nM; construct: GST-full length
T1 sequence: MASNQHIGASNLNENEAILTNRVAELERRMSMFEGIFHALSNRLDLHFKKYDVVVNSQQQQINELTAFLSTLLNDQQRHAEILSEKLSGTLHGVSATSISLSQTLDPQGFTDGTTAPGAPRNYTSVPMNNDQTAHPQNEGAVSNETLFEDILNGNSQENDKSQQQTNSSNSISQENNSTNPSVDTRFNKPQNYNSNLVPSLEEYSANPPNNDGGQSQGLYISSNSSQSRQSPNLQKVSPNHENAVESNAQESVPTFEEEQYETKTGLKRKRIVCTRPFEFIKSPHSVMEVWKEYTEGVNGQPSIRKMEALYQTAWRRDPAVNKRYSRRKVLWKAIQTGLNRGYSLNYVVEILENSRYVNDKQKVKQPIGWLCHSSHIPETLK
Procedure: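 Universal 'all 10-mer' protein binding microarrays (Agilent AMADID 015681) probed with GST-tagged S. cerevisiae TFs (full-length or DBD) made by in vitro transcription/translation (PURExpress), about 100-200 nM. Bound TF was detected with fluorescent anti-GST. Each ungapped 8-mer (which stands for itself and its reverse complement) is scored by the PBM enrichment score (E-score), a modified Wilcoxon-Mann-Whitney statistic from -0.5 to +0.5, computed with the Universal PBM Analysis Suite. Scale: above 0.35 generally sequence-specific binding.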

Going from ACTAGGGG to TGCCTACA, the “PBM E-score” value rises from -0.266 to -0.133.

Going from ACTAATCG to CGCGCTAG, the “PBM E-score” value falls from 0.0745 to 0.0353.

Compared with GAGCACGA, GCCATACA is higher in “PBM E-score” value: -0.0943 for the first, -0.0185 for the second.

First: GATGATCA
Second: TACTTCCA
The “PBM E-score” value of the first is higher: -0.0438 for the first, -0.153 for the second.

First: ATCCACAC
Second: AAGTGTCG
The “PBM E-score” value of the first is lower: -0.141 for the first, 0.126 for the second.

First: CGTCGGTC
Second: CCCCTTGA
The “PBM E-score” value of the first is higher: 0.105 for the first, -0.266 for the second.

First: TAGGTTCA
Second: ATAGGAGA
The “PBM E-score” value of the first is higher: -0.127 for the first, -0.321 for the second.

Compared with GGCCGTAA, AGCTAGAT is higher in “PBM E-score” value: -0.244 for the first, -0.0171 for the second.

Compared with GATAATAC, AATGTAAG is lower in “PBM E-score” value: 0.157 for the first, 0.151 for the second.

Compared with ATACATAT, ACGCAGGA is lower in “PBM E-score” value: 0.264 for the first, -0.0513 for the second.

Compared with CCGCGTCG, AAGAGGGG is lower in “PBM E-score” value: 0.0483 for the first, -0.28 for the second.

Compared with GCTTTAAA, AATGGGCT is lower in “PBM E-score” value: -0.0465 for the first, -0.182 for the second.

First: TGGGGTAA
Second: GCGCGGCC
The “PBM E-score” value of the first is higher: 0.16 for the first, -0.103 for the second.

Compared with ACGCCCTG, CATGCGCA is higher in “PBM E-score” value: -0.0492 for the first, 0.0921 for the second.

Going from CCGACGCA to AACCGGAA, the “PBM E-score” value rises from -0.106 to 0.0674.

Going from ACCCAATA to CAACACAA, the “PBM E-score” value rises from -0.0729 to 0.0576.

Going from ATAACATG to AGCGCTGC, the “PBM E-score” value falls from 0.0693 to -0.202.

First: CAATCGCC
Second: AGCGATCG
The “PBM E-score” value of the first is higher: 0.0521 for the first, -0.0251 for the second.

First: AATTCAAT
Second: ATCAGCAC
The “PBM E-score” value of the first is higher: 0.224 for the first, 0.009 for the second.

Going from GAACATGC to AGTCGAAC, the “PBM E-score” value rises from -0.00705 to 0.00072.

Going from ACGAAATC to GATTTCAC, the “PBM E-score” value rises from 0.0751 to 0.129.

Going from GGGCGTCA to GCCGCCAA, the “PBM E-score” value falls from -0.0945 to -0.201.

Going from CGCAAATA to CCCTCACC, the “PBM E-score” value falls from 0.0325 to -0.36.

Compared with ACAAATAC, ATCGGGAC is lower in “PBM E-score” value: 0.328 for the first, 0.289 for the second.

First: CGTCTCCA
Second: AGGAGCTA
The “PBM E-score” value of the first is higher: 0.109 for the first, -0.303 for the second.

First: AGTCCAGA
Second: CGGAGATA
The “PBM E-score” value of the first is lower: 0.0245 for the first, 0.143 for the second.

First: ATCCCGTA
Second: AAGGGATC
The “PBM E-score” value of the first is higher: 0.00661 for the first, -0.0129 for the second.

Going from CAGCACCG to CCGAGTAA, the “PBM E-score” value rises from -0.22 to 0.0151.

Going from CTGAAGAC to GACTGCAC, the “PBM E-score” value rises from -0.11 to -0.0902.

Compared with ACGACTTA, GGTCACAC is lower in “PBM E-score” value: -0.142 for the first, -0.191 for the second.

Compared with TCCTCTAA, TAGGGTGA is lower in “PBM E-score” value: -0.0667 for the first, -0.1 for the second.

Going from CCAGACAA to TAACCCGA, the “PBM E-score” value falls from 0.258 to 0.105.

Going from TACTACGA to CTACCCTA, the “PBM E-score” value falls from -0.0393 to -0.287.

Going from GGCTCGTA to ACTTGCTG, the “PBM E-score” value rises from -0.0555 to 0.017.

First: ACGGCCTC
Second: CTCATTAC
The “PBM E-score” value of the first is lower: -0.23 for the first, 0.0649 for the second.

Compared with TCCGCCAA, GTTTACAA is higher in “PBM E-score” value: -0.0375 for the first, 0.092 for the second.

Going from GGCATGCA to AACCCTAC, the “PBM E-score” value falls from 0.103 to -0.132.

Going from ATTATACG to ATGGACCC, the “PBM E-score” value falls from 0.138 to -0.0808.

Going from AGGAGCAC to CATGTGTA, the “PBM E-score” value rises from -0.0928 to 0.0787.

Going from AGGCCAAG to AACAGGGA, the “PBM E-score” value rises from -0.21 to 0.134.

Compared with CGAATGCA, CCCACCCC is lower in “PBM E-score” value: 0.0194 for the first, -0.109 for the second.

First: AGCCTCTA
Second: CAGAGTGC
The “PBM E-score” value of the first is lower: -0.246 for the first, -0.025 for the second.

First: AGATATTC
Second: AATAAACG
The “PBM E-score” value of the first is lower: 0.14 for the first, 0.16 for the second.

Compared with ACATCTTG, CCGGAGAA is lower in “PBM E-score” value: 0.167 for the first, 0.0438 for the second.

First: ATCTAGTA
Second: GTCCGTAA
The “PBM E-score” value of the first is lower: 0.178 for the first, 0.291 for the second.

Compared with GCCATCCA, CGTGTGAC is higher in “PBM E-score” value: -0.326 for the first, 0.0185 for the second.

Going from AAGTTGGC to ATCAGGGA, the “PBM E-score” value falls from 0.0053 to -0.0191.

Going from GCTGTTCC to ATGCTATG, the “PBM E-score” value falls from -0.0793 to -0.104.

Compared with GAGCTTAA, CCGGTACG is lower in “PBM E-score” value: -0.136 for the first, -0.262 for the second.

Going from CTTCCACC to AGGAGTAA, the “PBM E-score” value rises from -0.298 to -0.125.

Compared with GCACTCGA, ACTTATTA is higher in “PBM E-score” value: -0.0517 for the first, 0.0338 for the second.

First: CATAAGCG
Second: ACCAGTTC
The “PBM E-score” value of the first is higher: -0.0406 for the first, -0.305 for the second.

Going from CGAATAGA to CCTTGGCG, the “PBM E-score” value falls from 0.023 to -0.231.

Going from CGCTATCC to AGGTCTAC, the “PBM E-score” value falls from -0.00857 to -0.0162.

First: GTATATTA
Second: ACTCATTC
The “PBM E-score” value of the first is higher: 0.166 for the first, 0.0308 for the second.

Going from TCTCCAAA to AATGTTGA, the “PBM E-score” value falls from -0.012 to -0.0252.

First: TGATAGAA
Second: GATTCTTA
The “PBM E-score” value of the first is lower: 0.0574 for the first, 0.232 for the second.

First: AAAGGCTT
Second: AAGTGCTG
The “PBM E-score” value of the first is lower: 0.0105 for the first, 0.0426 for the second.

First: CGATTGCA
Second: ACTCTAAG
The “PBM E-score” value of the first is higher: 0.0766 for the first, -0.076 for the second.

Compared with CCCCTTAG, ACTAGTCG is higher in “PBM E-score” value: -0.247 for the first, -0.0243 for the second.

Compared with GATTCGTA, AACAACCC is higher in “PBM E-score” value: -0.0593 for the first, -0.00716 for the second.

Compared with CTGTCCTA, ATTCGTGC is lower in “PBM E-score” value: 0.346 for the first, 0.113 for the second.

First: CATCGAAG
Second: AATTCTGG
The “PBM E-score” value of the first is lower: -0.0041 for the first, 0.0955 for the second.

Compared with TATTGAAA, GCTGATCA is lower in “PBM E-score” value: 0.164 for the first, -0.0547 for the second.

Compared with ATTGCCCG, ATTCTTGA is lower in “PBM E-score” value: 0.0964 for the first, 0.062 for the second.

Compared with CATGGCAG, AGCGCTGA is lower in “PBM E-score” value: 0.146 for the first, 0.102 for the second.

Going from CCGGTTAC to ATCAACCA, the “PBM E-score” value falls from 0.0498 to -0.0804.

Going from CCGAGCCG to ATGATCAA, the “PBM E-score” value falls from 0.0777 to 0.0719.

First: GGTCCTAC
Second: ATTTAATG
The “PBM E-score” value of the first is lower: -0.113 for the first, 0.202 for the second.

Compared with AGAGCCGC, ACGAAGCT is lower in “PBM E-score” value: -0.0659 for the first, -0.0736 for the second.

Going from ATGTAGCC to ACATTGGA, the “PBM E-score” value rises from -0.116 to 0.135.

Going from CCGTTCTA to CCGCAACA, the “PBM E-score” value rises from 0.102 to 0.108.

Going from CGCATCAG to ACGGGTCG, the “PBM E-score” value rises from 0.00197 to 0.0213.

Going from ATATCACC to TGAAGGAA, the “PBM E-score” value falls from 0.129 to -0.0021.

First: CGCGCCAA
Second: AATGCTAC
The “PBM E-score” value of the first is lower: -0.0152 for the first, 0.0726 for the second.

Going from CTAGTGGA to GTCTCTTA, the “PBM E-score” value rises from -0.211 to 0.0849.

Going from CGCATTCA to AAGCAACG, the “PBM E-score” value falls from 0.07 to 0.0354.

Compared with ATGACTGA, GAACCGCA is lower in “PBM E-score” value: 0.0657 for the first, 0.0554 for the second.

First: AACCTAGA
Second: CGCAGCGC
The “PBM E-score” value of the first is higher: -0.0385 for the first, -0.0947 for the second.

Compared with ATTCGTCC, ATATACGA is lower in “PBM E-score” value: 0.323 for the first, 0.0731 for the second.

Going from ACATGTCT to ATAGCGAC, the “PBM E-score” value falls from 0.436 to 0.0688.

First: AAAGTGAG
Second: GCGCCCAC
The “PBM E-score” value of the first is higher: 0.149 for the first, -0.0696 for the second.

First: AGAGGGCA
Second: ACGAAACT
The “PBM E-score” value of the first is lower: -0.197 for the first, -0.0151 for the second.

Compared with GCCGGGAA, AAACGACG is higher in “PBM E-score” value: -0.264 for the first, 0.165 for the second.

Compared with AACCTAGG, GATCCTGA is higher in “PBM E-score” value: -0.0201 for the first, 0.0249 for the second.

Compared with CCGAGGGC, CAGCATCC is lower in “PBM E-score” value: -0.116 for the first, -0.166 for the second.
